In all, about 44,000 compounds went through this assay and about 340 (0.77%) were called active. About 5% were inconclusive and are not listed. Calls come from the whole dose curve; as a rule, active = well fitted inhibition curve with a large enough effect; inconclusive = small, poorly fitted or top-dose-only effect; inactive = flat fitted curve, though single readings scatter. The list shows a part of the results.
assay: Acumen qHTS Assay for Inhibitors of the mTORC1 Signaling Pathway in MEF (Tsc2-/-, p53-/-) Cells: Sytravon; settings: phospho-rpS6 immunofluorescence/PI, 24 h; series mostly up to 38.3 µM; activity change, negative = inhibition: at the top concentration;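 note: plate controls were DMSO for no effect and rapamycin for full effect; nearly all actives have a fitted effect of over 50% in size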
In short: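 Tsc2-/-, p53-/- mouse embryonic fibroblasts (empty-vector line) exposed to compound 24 hrs at 37 C, fixed, immunostained for phospho-rpS6 and counterstained with propidium iodide. Acumen laser scanning gives % positive cells from Alexa 488/PI ratio, thresholded using 7.5 nM rapamycin; PI count gives viability.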

Activity change, negative = inhibition, inactive:
COC(=O)c1cc(-c2ccc(Cl)cc2)c2c(=O)[nH]c(=O)n(C)c2n1 -0.0455%
COc1ccc(NC(=O)CCc2c(C)nn(-c3ccc(N4CCCC4)nn3)c2C)cc1Cl -9.58%
COc1ccc(N2CCN(C(=O)Cn3cnc4sc(C)c(S(=O)(=O)N5CCCCC5)c4c3=O)CC2)cc1 7.28%
Cc1ccc(Cn2c(=O)n(CCc3ccccc3)c(=O)c3sc4ccccc4c32)cc1 -8.73%
Cc1ccc(NC(=O)CCn2cccn2)c(C)c1 -2.17%
COCCn1c(C)cc(O)c(C(c2ccccc2)N2CCN(c3ccccc3F)CC2)c1=O (stereo unspecified) -1.31%
CC(Nc1ccc(-c2nc(-c3cccnc3)no2)cc1[N+](=O)[O-])c1ccccc1 (stereo unspecified) 0.98%
CCS(=O)(=O)c1ccc(C(=O)N2CCN(c3nc4c(OC)ccc(C)c4s3)CC2)cc1 -6.62%
COc1ccccc1-c1nc(CNC(=O)NC2CCCCC2)c(C)o1 6.84%
COc1cccc(NC(=O)CSc2cc(C)c3ccccc3n2)c1 -10%
O=C(Cn1ncc2ccsc2c1=O)N1CCN(c2ccc(Cl)cc2)CC1 -0.0585%
Cc1ccc(NC(=O)CCn2nc(C)c3c(C)n(-c4ccccc4)nc3c2=O)cc1Cl 0.572%
CC1CCCCN1Cc1nc2c(c(=O)n(C)c(=O)n2C)n1Cc1ccc(Br)cc1 (stereo unspecified) 0.905%
Cc1ccc2c(Sc3ccc(Cl)cc3)c(C(=O)N3CCCCC3)[nH]c2c1 0.0212%
COc1ccc(NC(=O)c2c(-c3ccc(C)cc3)nnc3ccccc23)cc1OC -1.87%
CC(C)c1ccc(NC(=O)c2cn(C3CCCC3)c(=O)c3c2c2ccccc2n3C)cc1 -3.77%
CCCOc1ccc(NC(=O)CC2C(=O)N(c3cccc(OC)c3)C(=O)N2CCc2ccncc2)cc1 (stereo unspecified) -13.2%
O=C(Nc1cccc(C(=O)OCc2cc(=O)n3nc(C4CC4)sc3n2)c1)c1ccc(F)cc1 2.66%
CC(=O)c1ccc(S(=O)(=O)N2CCC(Oc3ccc(-n4cnnn4)cc3)CC2)cc1 -0.138%
O=C(Nc1cccc(Cl)c1)N1Cc2ccccc2Oc2ncccc21 -17.5%
CCc1ccc(NC(=O)CN2C(=O)C(=O)c3ccccc32)cc1 -18.7%
COc1ccc(S(=O)(=O)Nc2ccc(O)c(Sc3nc4ccccc4s3)c2)cc1 -2.28%
CCCC(=O)NC1CC(=O)N(c2ccc3c(c2)OCCO3)C1 (stereo unspecified) 0.384%
COc1ccccc1C1C(C(N)=O)=C(C)Nc2nc(SCc3ccccc3F)nn21 (stereo unspecified) -1.47%
Cc1c(C(=O)N(C)C)sc2c1c(=O)n(-c1ccc(Cl)c(Cl)c1)c(=O)n2Cc1ccc(F)cc1 -1.37%
CCOc1ccccc1NC(=O)c1ccc2oc(=O)c(S(=O)(=O)c3ccc(F)cc3)cc2c1 -3.23%
CN(C(=O)CSc1nc2ccc(NC(=O)c3ccc(F)cc3)cc2s1)c1ccccc1 -9.99%
Cc1ccccc1CCNC(=O)c1cc2ccccn2n1 0%
Cc1cccc(N2CCN(C(=O)Cn3nc(C)c4sc5ccccc5c4c3=O)CC2C)c1 (stereo unspecified) -4.62%
CCn1cc(C(=O)N(C)Cc2ccccc2)c(=O)c2cc(S(=O)(=O)N3CCCCC3)ccc21 -3.24%
COc1ccc(-c2onc(C)c2C)cc1S(=O)(=O)NC1CCCCC1 0.724%
CCOC(=O)Cn1nc(N2CCN(c3ccc(F)cc3)CC2)ccc1=O -0.461%
CCOC(=O)c1cccc(NC(=O)CCc2c(C)nc3c4cccnc4nn3c2C)c1 -0.525%
COC(=O)C1=C(c2ccccc2)c2ccccc2S(=O)(=O)N1CC(=O)Nc1cc(C)ccc1C -13%
Cc1ccc(CN2C(=O)C3(SCC(=O)N3c3ccc(C)c(C)c3)c3ccccc32)cc1 (stereo unspecified) 3.01%
Cc1cccc(N2CCN(c3c(CN4CCCC4)c(=O)oc4ccccc34)CC2)c1C 4.15%
CSc1ccc(Nc2nn(-c3ccc(OC(F)(F)F)cc3)nc2C(C)=O)cc1 -2.18%
Cc1c(C(=O)N2CCOCC2)oc2c1-c1nn(CC(=O)NCc3ccccc3)cc1CC2 2.65%
Cn1c(=O)n(C)c2cc(CNCc3ccc(C(=O)O)cc3)ccc21 -0.655%
CCOCCn1ccc2c(OCC(=O)Nc3cc(C(F)(F)F)ccc3Cl)cccc2c1=O -9.23%
Cc1ccc2c(c1)N(CC(=O)NCc1cccc(Cl)c1)C(=O)c1cccnc1O2 -4.73%
COc1ccccc1Cn1c(CNS(=O)(=O)c2c(C)cc(C)cc2C)nc2cccnc21 -8.17%
Cc1ccc(-n2nc(C)c3c(C)c(CCC(=O)NCc4cccc(Cl)c4)c(C)nc32)cc1C -1.09%
CC(=O)c1cccc(NC(=O)c2ccc3c(c2)CCN3S(=O)(=O)c2ccccc2)c1 -4.44%
CCOCCCn1c(=N)c(S(=O)(=O)c2ccccc2)cc2c(=O)n3cc(C)ccc3nc21 5.08%
CCn1cc(S(=O)(=O)c2ccccc2)c(=O)c2cc(F)c(N3CCCCCC3)cc21 -3.49%
Cc1cccc(C(=O)Nc2cc3c(cc2N2CCCCC2)n(C)c(=O)n3C)c1 1.06%
CCOc1ccc(CCNC(=O)c2cc3cc4ccc(OC)cc4nc3s2)cc1OCC -11.6%
O=C(CSc1c2c(nc3ccc(Cl)cc13)CCCC2)N1CCCCC1 -6.2%
Cc1ccccc1OCC(=O)Nc1ccc(S(=O)(=O)Nc2ncccn2)cc1 10.3%
COc1ccc(C(=O)Oc2c(Sc3ccc(C)cc3)c(C)nn2C(C)(C)C)c(OC)c1 6.99%
COCCNC(=O)C(=O)Nc1ccc2nc3n(c(=O)c2c1)CCCCC3 -17%
C=Cc1ccc(Cn2c(C(=O)O)c(CNCc3cc(OC)ccc3OC)c3ccc(C)cc32)cc1 1.33%
COc1ccc(-c2nc(C)c(CCNC(=O)c3cccc(C)c3)s2)cc1OC -0.758%
COc1ccc(CCNC(=O)C(C)n2nc(C)c3sc4ccccc4c3c2=O)cc1OC (stereo unspecified) -5.28%
CCOc1ccc(C2C(C(=O)Nc3ccc(C)cc3C)=C(C)Nc3c(C(=O)Nc4ccc(C)cc4)cnn32)cc1OC (stereo unspecified) -7.5%
CCC12CN3CC(C)(CN(C1)C3c1c(C)[nH]c3ccccc13)C2=O (stereo unspecified) -5.76%
COc1ccc(-c2nc3c(C#N)c[nH]n3c2NC2CCCCC2)cc1 -7.47%
COc1ccc(C2NC(=O)N(C)C3=C2C(=O)N(c2ccccc2)C3)cc1 (stereo unspecified) 4.14%
COC(=O)c1cc2sccc2n1Cc1ccc(F)cc1 -18.8%
Cc1ccc(C)c(CNC(=O)C2CCCCN2S(=O)(=O)c2ccc(F)cc2)c1 (stereo unspecified) 0%
CCOc1ccc(NC(=O)c2cccc(N3CCCS3(=O)=O)c2)cc1 4.05%
Cc1ccc(C)c(N2CCN(C(=O)CN3C(=O)COc4ccc(S(=O)(=O)N5CCOCC5)cc43)CC2)c1 1.06%
CCN(c1cccc(C)c1)C(CNS(=O)(=O)c1ccccc1)c1ccccc1 (stereo unspecified) 0.312%
Cc1cccc(-c2cc(NC(=O)c3ccccc3C)n(-c3ccccc3)n2)c1 2.68%
CCC(=O)N1c2ccccc2CC1C(=O)NCCCN1CCN(c2ccccc2)CC1 (stereo unspecified) 0%
O=C(Nc1ccc(F)c(Cl)c1)C1CCCN(c2ncnc3onc(-c4ccc(F)cc4)c23)C1 (stereo unspecified) 1.41%
Cc1ccc(C)c(NC(=O)c2cc(S(=O)(=O)N3CCc4ccccc4C3)ccc2F)c1 7.1%
COc1ccccc1CNC(=O)c1cc2sccc2n1Cc1ccc(F)cc1 -27.2%
COc1ccc(C2C=C(c3ccc(C)cc3)Nc3c(C(=O)Nc4ccccc4)cnn32)cc1 (stereo unspecified) -4.35%
COc1ccc(Br)cc1CNC(=O)CCCn1c(=O)c2cccn2c2cccnc21 -9.3%
COc1ccc(-c2noc(-c3ccccc3OCC(=O)Nc3ccc(C(C)=O)cc3)n2)cc1 1.09%
O=C(Cn1ncc2c3ccccc3n(Cc3ccccc3)c2c1=O)N1CCCCCC1 -11.7%
COCCCn1c(SCc2ccccc2F)nc2c(sc3ccccc32)c1=O 1.54%
COc1ccccc1NC(=O)Cn1c(=O)n(-c2ccccc2Cl)c(=O)c2sc3ccccc3c21 -14.1%
CCOC(=O)c1[nH]c2ccccc2c1NC(=O)c1cc(Cl)ccc1Cl -28.9%
Cc1ccc(CNc2ccc(-c3nc(-c4cccnc4)no3)cc2[N+](=O)[O-])cc1 1.01%
CCN(CC)S(=O)(=O)c1ccc2c(c1)N(CC(=O)Nc1ccc(F)cc1F)C(=O)C1CCCN21 (stereo unspecified) 3.08%
COc1ccc(CNC(=O)CCCCCn2c(=O)[nH]c3ccccc3c2=O)cc1 0.209%
COc1cc(NC(=O)Cn2c(C)cc(C)c(C#N)c2=O)cc(OC)c1 0%
CCOC(=O)c1[nH]c2ccccc2c1NC(=O)c1ccc(OC)c(OC)c1 -3.65%
CCn1cc(C(=O)NCCc2ccc(Cl)cc2)c(=O)c2cc(S(=O)(=O)N3CCOCC3)ccc21 -15.6%
Oc1cccc(-c2nc3ncccn3c2Nc2cccc(C(F)(F)F)c2)c1 -3.92%
O=C(CC(c1cccs1)N1Cc2ccccc2C1=O)Nc1ccc(Cl)cc1 (stereo unspecified) 3.39%
COc1ccccc1Cc1nc2ccccc2nc1SCC(=O)NCc1ccc(F)cc1 1.8%
COc1ccccc1Nc1nc2c(S(=O)(=O)c3ccc(C(C)C)cc3)nnn2c2ccsc12 -2.8%
Cc1ccc2c(=O)cc(C(=O)Nc3ccc(S(=O)(=O)N4CCCCC4)cc3)oc2c1C -9.07%
Cc1cccc(N2CCN(c3ncnc4onc(-c5ccc(F)cc5)c34)CC2C)c1 (stereo unspecified) -11%
CCOc1ccc2nc(Cl)c(C3CC(c4ccc(C)cc4)=NN3C(=O)CCCC(=O)O)cc2c1 (stereo unspecified) -3.02%
Cc1cc(C)c2oc(-c3ccc(NC(=O)c4cc(Br)ccc4Cl)cc3)nc2c1 2.53%
Cc1ccc(NC(=O)CCc2nc3cccnc3n2-c2ccccc2)cc1 -17.4%
Cc1coc2cc3oc(=O)c(CC(=O)NCCc4ccccc4F)c(C)c3cc12 3.55%
O=C(Cn1c(=O)n(Cc2ccc(C(=O)NCc3ccccc3Cl)cc2)c(=O)c2ccccc21)Nc1ccc(F)cc1 3.59%
CC(C)(C)C(=O)Nc1ccc(Cl)c(-c2nc3ccccc3[nH]2)c1 -0.112%
Cc1c(-c2ccccc2)n(-c2ccc(Cl)cc2)c2nc3c(c(=O)n(C)c(=O)n3C)n12 -2.36%
Cc1ccn2c(c1)nc(=O)c1cc(S(=O)(=O)N3CCC(C)CC3)c(Cl)cc12 0.245%
